Measured values: PubChem BioAssay AID686979 (National Center for Advancing Translational Sciences (NCATS), 2013)
“And” between values parts separate entries of the source, which are not always exact repeats. Equal entries are not always repeated. Hit rate of the full screen: of about 420,000 compounds, about 50,000 (12%) were called active. Inconclusive means that the source gave no clear call. Such entries were picked first, then a sample of the others. Calls come from the whole dose curve; as a rule, active = well fitted inhibition curve with a large enough effect; inconclusive = small, poorly fitted or top-dose-only effect; inactive = flat fitted curve, though single readings scatter. A potency beside an inconclusive call is a rough fit, not a confirmed value.
Potency is the fitted concentration of half-maximal effect; tags give direction and shape of the fitted curve.

Experiment: qHTS for Inhibitors of human tyrosyl-DNA phosphodiesterase 1 (TDP1): qHTS in cells in presence of CPT; note: nearly all actives have a fitted effect of over 55% in size
Settings: chicken DT40 Tdp1-/-;hTDP1 cells + 20 nM CPT, ATP luminescence, 48 h; series mostly up to 46.2 µM
Summary of the method: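 Chicken DT40 Tdp1-/- cells complemented with human TDP1, 400 cells/well, exposed to compounds plus 20 nM camptothecin for at least 48 h at 37 C; viability read as ATP content by CellTiter-Glo luminescence.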
With `COc1ccc(-c2noc(N3CCCC(C(=O)Nc4ccc(F)cc4F)C3)n2)cc1` (configuration not stated) the Potency was inconclusive: 29.1 µM [inhibitor, single point].
With `COC(=O)/C=c1/s/c(=C(\C#N)C(=O)NCc2ccco2)n(-c2ccc(C)cc2)c1=O` the Potency was inconclusive: 32.6 µM [inhibitor, single point].
For `CCOC(=O)N1CCN(C(=O)c2ccc(S(=O)(=O)Nc3ccc(C)cc3)cc2)CC1`, the Potency was active: 9.2 µM.
For `Cc1nc(NC(=O)/C=C/c2ccc(F)cc2)sc1C(=O)N(C)C`, the Potency was “inactive”.
In the case of `Cn1cccc1/C=C1\CCc2ccccc2C1=O`, the Potency is reported as inconclusive: 0.651 µM [inhibitor, full curve, poor fit].
For `O=C(Nc1ccc(N2CCN(C(=O)c3ccc(Cl)cc3)CC2)cc1)c1ccc(Br)o1`, the Potency was inconclusive: 23.1 µM [inhibitor, single point].
With `COC(=O)c1cnc(Nc2nc(C(N)Cc3ccc(OC)cc3)cs2)nc1C(F)(F)F` (configuration not stated) the Potency was inconclusive: 29.1 µM [inhibitor, single point].
For `COCCC1CCCCN1C(=O)c1cc(COc2cccc(C(C)=O)c2)on1` (configuration not stated), the Potency was active: 23.1 µM.
For `COc1ccc(CN2COc3ccc4c(-c5ccc(OC)cc5)cc(=O)oc4c3C2)cc1`, the Potency was active: 9.2 µM.
In the case of `CCC1CCCCN1C(=O)Cn1c(=O)n(CCCC(=O)NCc2ccco2)c(=O)c2sccc21` (configuration not stated), the Potency is reported as “inactive”.
With `CC(=O)Nc1ccc(Nc2ccccc2)cc1` the Potency was inconclusive: 23.1 µM [inhibitor, single point].
In the case of `N#Cc1c(Cl)nsc1NCCN1CCOCC1`, the Potency is reported as inconclusive: 14.6 µM [inhibitor, partial curve].
With `CC(NCc1ccc(N(C)C)cc1)C1CC2CCC1C2` (configuration not stated) the Potency was inconclusive: 18.4 µM [inhibitor, single point].
With `COc1ccc(NC(=O)C(=O)NCC2CCCN2S(=O)(=O)c2ccc(C)cc2)cc1` (configuration not stated) the Potency was active: 0.0058 µM.
For `C=CCCC(=O)N1CCC(CCC(=O)NC2CC2)CC1`, the Potency was “inactive”.
With `CC(C)n1c(N2CCCC2)nc2c1c(=O)[nH]c(=O)n2C` the Potency was “inactive”.
In the case of `COc1cccc(C#Cc2ccc3c(c2)O[C@H](CN(C)C)[C@@H](C)CN([C@@H](C)CO)S3(=O)=O)c1`, the Potency is reported as inconclusive: 23.1 µM [inhibitor, single point].
In the case of `COc1ccc(CNC(=O)Cn2ncn3nc(-c4cccs4)cc3c2=O)cc1`, the Potency is reported as inconclusive: 23.1 µM [inhibitor, single point].
With `COc1cc(/C=C2\SC(=S)N(CCC(=O)Nc3ccccc3)C2=O)cc(OC)c1OC` the Potency was inconclusive: 23.1 µM [inhibitor, single point].
In the case of `COCC(=O)N1CCC2(CC1)CN(C(=O)Nc1cccc(C#N)c1)C2`, the Potency is reported as “inactive”.
For `COc1cc(NS(=O)(=O)c2ccc(NC(=O)COc3ccccc3C)cc2)nc(OC)n1`, the Potency was inconclusive: 4.11 µM [inhibitor, full curve].
With `CCn1ncc([C@@H]2C[C@H]3CN(Cc4cccc(Cl)c4)C(=O)[C@]34CCCN24)c1C` the Potency was inconclusive: 20.6 µM [inhibitor, single point].
With `Cc1ccccc1C(=O)Nc1ccc2c(c1)C(=O)NC2=O` the Potency was “inactive”.
With `COc1cccc(Cn2c(=O)c(C)nc3cnc(N(C)C)nc32)c1` the Potency was active: 16.4 µM.
With `COc1cccc(COC(=O)CCNC(=O)c2ccc(Br)cc2)c1OC` the Potency was “inactive”.
For `CC(=O)c1ccc(N2CCN(C(=S)Nc3ccc(Oc4ccccc4)cc3)CC2)cc1`, the Potency was inconclusive: 20.6 µM [inhibitor, single point].
For `CCOC(=O)NN1C(=O)c2ccccc2NC1c1ccccc1` (configuration not stated), the Potency was “inactive”.
In the case of `COc1ccc(CN(C(=S)Nc2ccccc2)C2CC(=O)N(c3ccc(F)cc3)C2=O)cc1` (configuration not stated), the Potency is reported as inconclusive: 16.4 µM [inhibitor, single point].
In the case of `CC1=C(C(=O)OC2CCCCC2)C(c2cccs2)n2c(nc3ccccc32)N1` (configuration not stated), the Potency is reported as “inactive”.
In the case of `COc1ccccc1/C=C1\SC(=O)N(CC(=O)N(C)C2CCS(=O)(=O)C2)C1=O` (configuration not stated), the Potency is reported as “inactive”.
For `Cc1ccc2c(C)c(C(=O)N(C)Cc3nccn3C)oc2c1C`, the Potency was inconclusive: 23.1 µM [inhibitor, single point].
For `COc1ccc(NC(=O)N[C@H]2C=C[C@@H](CC(=O)NC3CCC3)O[C@@H]2CO)cc1`, the Potency was “inactive”.
In the case of `CCOC(=O)c1sc(=N)n(-c2ccc(OC)cc2)c1C`, the Potency is reported as inconclusive: 29.1 µM [inhibitor, single point].
For `CCN(CC)C(=O)c1c2c(nc3ccccc13)-c1ccccc1CC2`, the Potency was inconclusive: 20.6 µM [inhibitor, single point].
In the case of `CCc1ccccc1N(CC(=O)N1CCc2ccccc2C1)S(C)(=O)=O`, the Potency is reported as “inactive”.
With `COc1ccc(C(=O)NCCS(=O)(=O)N2CCC3(CC2)OCCO3)cc1` the Potency was “inactive”.
With `NS(=O)(=O)c1ccc(N2N=C(c3ccccc3)CC2c2ccc(Br)cc2)cc1` (configuration not stated) the Potency was inconclusive: 29.1 µM [inhibitor, single point].
For `CCOC(=O)c1ccc(NC(=O)CCS(=O)(=O)c2ccc3c(c2)oc(=O)n3C)cc1`, the Potency was “inactive”.
In the case of `O=C(Nc1ccc(F)cc1)C(CCc1ccccc1)N1CCN(c2ccncc2)CC1` (configuration not stated), the Potency is reported as active: 16.4 µM.
For `CCCC(=O)O[C@]1(C(=O)CCl)[C@@H](C)C[C@H]2[C@@H]3CCC4=CC(=O)C=C[C@]4(C)[C@@]3(F)C(=O)C[C@@]21C`, the Potency was inconclusive: 23.7 µM [inhibitor, single point] and inconclusive: 3.66 µM [inhibitor, full curve, poor fit].
For `C=C(C)C1CC=C(C)/C(=N/NC(=O)COc2cccc(C)c2)C1` (configuration not stated), the Potency was inconclusive: 29.1 µM [inhibitor, single point].
In the case of `CC(=O)OCC(=O)C1(O)CCC2C3CC(F)C4=CC(=O)CCC4(C)C3C(=O)CC21C` (configuration not stated), the Potency is reported as “inactive”.
In the case of `C=C(C)COc1ccc2c(C)c(CC(=O)OC)c(=O)oc2c1C`, the Potency is reported as active: 18.4 µM.
With `CCN(CCCNC(=O)c1cc2c(=O)[nH]c3ccc(C)cc3c2s1)c1ccc(C)cc1` the Potency was inconclusive: 29.1 µM [inhibitor, single point].
For `CCCNc1nc(NCc2ccccc2OC)c2cnn(C)c2n1`, the Potency was active: 14.6 µM.
For `CCc1cccc(C)c1N=Cc1c(O)c2ccccc2oc1=O`, the Potency was “inactive”.
In the case of `CCc1ccc(NC(=O)C(CC)n2nnc(C(=O)OC)c2C(=O)OC)cc1` (configuration not stated), the Potency is reported as “inactive”.
In the case of `CCOc1ccc(-c2ccc(C=O)o2)c([N+](=O)[O-])c1`, the Potency is reported as inconclusive: 29.1 µM [inhibitor, single point].
With `Cc1cc(O)c(C2=Nc3ccccc3SC(c3ccc(Cl)cc3)C2)c(=O)o1` (configuration not stated) the Potency was active: 5.17 µM.
For `NC(Cc1ccc(C(F)(F)F)cc1)c1csc(NC(=O)Nc2ccccc2Cl)n1` (configuration not stated), the Potency was inconclusive: 29.1 µM [inhibitor, single point].
In the case of `C[C@H](CO)N1C[C@H](C)[C@@H](CN(C)Cc2ccccc2)Oc2ccc(NC(=O)CCCCCC(=O)Nc3ccccc3N)cc2C1=O`, the Potency is reported as inconclusive: 18.4 µM [inhibitor, single point].
For `O=C(Nc1ccccc1)N(Cc1ccc(Cl)cc1)CC(O)C(F)(F)F` (configuration not stated), the Potency was inconclusive: 14.6 µM [inhibitor, single point].
With `Cc1cccc(CN2C(=O)CC(c3ccc(Cl)cc3)c3c(C)nn(-c4nc(C)cc(C)n4)c32)c1` (configuration not stated) the Potency was inconclusive: 29.1 µM [inhibitor, single point].
For `COc1cc2c(cc1OC)C(C)N(C(=O)c1cc3c(s1)-c1ccccc1OC3)CC2` (configuration not stated), the Potency was inconclusive: 29.1 µM [inhibitor, single point].
In the case of `CCCCN(CCCC)CCNC(=O)CN1C(=O)CSc2ccc(S(=O)(=O)N3CCCCC3)cc21`, the Potency is reported as inconclusive: 23.1 µM [inhibitor, single point] and inconclusive: 29.1 µM [inhibitor, single point].
With `Cc1cc(=O)oc2cc(Oc3ccc([N+](=O)[O-])cc3[N+](=O)[O-])ccc12` the Potency was active: 5.17 µM.
With `CCCNC(=O)c1ccc(N2CCC3(CC2)CC(c2ccccc2)=NO3)c(N)c1` the Potency was inconclusive: 18.4 µM [inhibitor, partial curve].
With `COc1ccccc1NC(=O)CN1C(=O)c2cccc3cccc1c23` the Potency was inconclusive: 29.1 µM [inhibitor, single point].
In the case of `Cc1cccc(N2CCN(C(=O)C3CCN(S(=O)(=O)c4cn(C)cn4)CC3)CC2)c1C`, the Potency is reported as inconclusive: 29.1 µM [inhibitor, single point].
In the case of `COc1ccc(/C=C/C(=O)NC(=S)NNC(=O)c2cccnc2)cc1`, the Potency is reported as inconclusive: 23.1 µM [inhibitor, single point].
In the case of `Cc1cccc(-c2c3c(=O)n(C)c(=O)n(C)c3cn2C2CCCCC2)c1`, the Potency is reported as inconclusive: 20.6 µM [inhibitor, single point].
With `Cn1cc(C(C[N+](=O)[O-])c2ccccc2)c2ccccc21` (configuration not stated) the Potency was inconclusive: 20.6 µM [inhibitor, single point].
In the case of `COc1ccc(N2CCN(C(=S)NCc3ccc(C)cc3)CC2)cc1`, the Potency is reported as inconclusive: 29.1 µM [inhibitor, single point].
For `CCOc1ccc2ccccc2c1C(=O)N[C@@H]1C(=O)N2[C@@H]1SC(C)(C)[C@@H]2C(=O)O`, the Potency was inconclusive: 18.4 µM [inhibitor, partial curve].
For `N#C/C(=C/c1cccn1-c1cccc(C(=O)O)c1)c1ccc(F)cc1`, the Potency was “inactive”.
With `COc1ccc2c(c1)C1NC(=S)NC(C)(O2)C1C(=O)Nc1ccc(Cl)cc1` (configuration not stated) the Potency was inconclusive: 23.1 µM [inhibitor, partial curve].
For `Cc1ccc(Cl)cc1N1CCN(S(=O)(=O)c2ccc3[nH]c4c(c3c2)CCCC4)CC1`, the Potency was inconclusive: 29.1 µM [inhibitor, single point].
